Laboratory results taken from patent US20090305982A1 (Pieris, published 2009).

What was measured:
[1] = target: T1, IL-4 receptor alpha-Fc (R&D Systems) (human, UniProt P24394 26-232); experiment: SPR (Biacore), IL-4 receptor alpha-Fc captured via anti-human Fc, mutein injected
T1 construct: Bought Fc fusion

[2] = target: T1, IL-4 receptor alpha-Fc (R&D Systems); experiment: competition ELISA: IL-4 receptor alpha-Fc (15 nM) preincubated with mutein, free receptor caught on IL-4-coated plate (competitor IL-4)
[3] = target: T1, IL-4 receptor alpha-Fc (R&D Systems); experiment: competition ELISA: 15 nM IL-4 receptor alpha-Fc pre-incubated with the mutein, free receptor caught on coated IL-4 (20 ug/ml), detected with anti-human-Fc-HRP
[4] = target: T2, human IL-4 receptor alpha on cells (peripheral blood lymphocytes, primary B cells, TF-1, A549, PBMC) (human, UniProt P24394 26-825); experiment: cell-based or functional assay
[5] = target: T2, human IL-4 receptor alpha on cells …; experiment: cell-based or functional assay; remark: listed apart in the source
[6] = target: T2, human IL-4 receptor alpha on cells …; experiment: cell-based or functional assay; remark: listed apart in the source
[7] = target: T2, human IL-4 receptor alpha on cells …; experiment: flow cytometry, human peripheral blood lymphocytes, 10 µg/ml
[8] = target: T3, cynomolgus IL-4 receptor alpha on peripheral blood lymphocytes (cynomolgus); experiment: flow cytometry, cynomolgus peripheral blood lymphocytes, 10 µg/ml
T3 construct: whole, on cells

[9] = target: T1, IL-4 receptor alpha-Fc (R&D Systems); experiment: SPR (Biacore), IL-4 receptor alpha-Fc captured via anti-human Fc, mutein injected; average (SD) of five
[10] = target: T2, human IL-4 receptor alpha on cells …; experiment: flow cytometry on human primary B cells (CD20+ PBMC), anti-lipocalin antiserum and streptavidin-PE; % PE-positive B cells against concentration
[11] = target: T4, biotinylated IL-4 receptor alpha (Peprotech) (human, UniProt P24394 26-232, limits assumed, biotinylated (sites not told)); experiment: competition ELISA: biotinylated IL-4 receptor alpha (0.5 nM) preincubated with mutein, MAB230-coated plate (competitor MAB230); average (SD) of three
T4 construct: Bought soluble protein; also called IL-4R alpha-bio

[12] = target: T4, biotinylated IL-4 receptor alpha …; experiment: competition ELISA: 0.5 nM biotinylated IL-4 receptor alpha pre-incubated with the mutein, free receptor caught on coated MAB230, detected with Extravidin-HRP; fit y = 0.5*(-m0+m2-m1+sqrt(-m0..., KD = m1 per legend paragraph 197)); one representative experiment

B1: human tear lipocalin mutein S148.3 J14 (designed binder)
chain: ASDEEIQDVSGTWYLKAMTVDSRCPRAYYGSVTPMTLTTLEGGNLEAKVTMQRIGRSQEVKAVLEKTDEPGKYTASGGRHVAYIIRSHVKDHYIFYSEGLCPGQPVPGVWLVGRDPKNNLEALEDFEKAAGARGLSTESILIPRQSETSSPGSA
notes: N-terminal T7-tag and C-terminal Strep-tag II are part of the characterized protein
Q: What does the source list for B1?
A: Kd [1]: 37.5 nM; koff [1]: 0.00517 s⁻¹; kon [1]: 140000 M⁻¹ s⁻¹; Ki [2]: 17.3 nM; IC50 (read off the curve) [3]: ~60 nM

B2: human tear lipocalin mutein S191.4 B24 (designed binder)
chain: ASDEEIQDVSGTWYLKAMTVDSRCPRAYYSSVTPMTLTTLEGGNLEAKFTAQRSGRWQEYKLVLEKTDEPGKYTASGGRHVAYIIRSHVKDHYIFHSEGLCPGQPVPGVWLVGRDPKNNLEALEDFEKAAGARGLSTESILIPRQSETSSPGSA
Q: How did the “Kd on cells, Schild analysis of IL-4 dependent TF-1 viability (linear regression)” value [4] turn out when B2 was run?
A: 0.192 nM

Q: What about the “Kd on cells, Schild analysis of IL-4 dependent TF-1 viability (non-linear regression)” value [4] of the same binder?
A: 0.116 nM

Q: And the “IC50, IL-4 mediated eotaxin-3 secretion in A549 cells” value [5]?
A: 32 nM

Q: What about the “IC50, IL-13 mediated eotaxin-3 secretion in A549 cells” value [5] of the same binder?
A: 5.1 nM

Q: And the “IC50, IL-4 mediated CD23 expression in PBMCs” value [6]?
A: 905 nM

Q: What about the “IC50, IL-13 mediated CD23 expression in PBMCs” value [6] of the same binder?
A: 72 nM

Q: And the “% Positive” value [7]?
A: 74%

Q: And the MFI [7]?
A: 9.3

Q: What about the “% Positive” value [8] of the same binder?
A: 80%

Q: What about the MFI [8] of the same binder?
A: 9.2

Q: What about the Kd [9] of the same binder?
A: 0.0193 nM

Q: What about the koff [9] of the same binder?
A: 4.9e-05 s⁻¹

Q: What about the kon [9] of the same binder?
A: 2.6e+06 M⁻¹ s⁻¹

Q: What about the EC50 [10] of the same binder?
A: 0.105 nM

Q: What about the Kd [11] of the same binder?
A: 0.0492 nM

Q: And the Kd [12]?
A: 0.0524 nM
